Data taken from PubChem BioAssay (NCATS).
This list was built around the results that the source calls inconclusive (neither active nor inactive); the mix of calls is not that of the screen. No potency is given beside an inconclusive call; the fits are too rough. Activity calls are given as the source filed them. Unless noted, calls follow the shape of the dose curve; as a rule, active = well fitted curve in the direction sought with a large enough effect; inconclusive = small, poorly fitted or top-dose-only effect, or another doubt; inactive = no such curve, though single readings can be large; an effect the other way counts as inactive or inconclusive.

System: Zika virus NS2B-NS3 protease (linked construct)
Assay: Primary screen NINDS Rhodamine qHTS for Zika virus inhibitors (AID 1347160); also: nearly all actives have a fitted effect of over 55% in size; as to activity change, negative = inhibition: % is scaled to controls: 0 for no effect and ±100 for the full control effect
Conditions: purified NS2B-NS3 protease, Rhodamine110 substrate fluorescence; activity change, negative = inhibition: at 57.1 µM (top of the series) unless noted; series mostly up to 57.1 µM
How it was run: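 Aprotinin served as in-plate control. Conditions: 25 nM linked NS2B-NS3, pH 8.0 Tris buffer, titrated compounds, 15 min preincubation and 15 min reaction with 1.5 microM Rhod110 substrate at room temperature.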
Potency is read from the fitted curve at half-maximal effect; tags tell the direction and shape of the fitted curve.

SMILES | Potency | activity change, negative = inhibition
OC[C@H]1O[C@@H](OCc2ccccc2)[C@H](O)[C@@H](O)[C@@H]1O | inconclusive [inhibitor, single point] | –
CCNC1(C(N)=O)CN(c2nc(C)nc3c(-c4ccc(Cl)cc4)c(-c4ccccc4Cl)nn23)C1 | inconclusive [inhibitor, full curve, poor fit] | –
Nc1nc2c(s1)CCN(Cc1ccc(Cl)cc1)CC2 | – | inactive: 43.2%
CCC(C)/C=C(C)/C=C/C1=CC2=C(Cl)C(=O)C(C)(OC(C)=O)C(=O)C2(O)C(OC)O1 (centres undefined) | active: 11.2 µM | –
CC(C)c1cc2c(c(O)c1O[C@@H]1O[C@H](CO)[C@@H](O)[C@H](O)[C@H]1O)CC1(O)CCC(O)C(C)(C)C1CC2 (some centres undefined) | active: 7.94 µM | –

System: not listed separately
Assay: qHTS to identify inhibitors of the type 1 interferon - major histocompatibility complex class I in skeletal muscle: primary screen against the NCATS Mechanism Interrogation Plate v5.0 (MIPE) Libary (AID 1347411); also: nearly all actives have a fitted effect of over 65% in size;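 as to activity change, negative = inhibition: plate controls were vehicle for no effect and reference inhibitor for full effect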
Conditions: iHSKM cells + IFN-b, HiBiT-tagged MHC-I luminescence, 24 h; activity change, negative = inhibition: at 45.8 µM (top of the series)
How it was run: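 Seed engineered human myoblasts (HLA-B HiBit) in medium without dexamethasone containing 4 ng/ml IFN-beta; after 1 hr add compound titrations (top 46 uM final). Incubate 24 hrs at 37 C, lyse 10 min with HiBiT reagent, read luminescence.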

SMILES | activity change, negative = inhibition | Potency
O=C([C@@H](Cc1cccc(C(F)(F)F)c1)NS(=O)(=O)c1cc(F)c2c(c1)CCNC2)N1CCCC1 | inactive: -11.7% | –
CC(C)S(=O)(=O)c1ccc2nccc(Nc3ccc4scnc4c3)c2c1 | – | inconclusive [inhibitor, partial curve, poor fit]
CC(=O)O[C@]1(C(C)=O)CC[C@H]2[C@@H]3C=C(C)C4=CC(=O)CC[C@]4(C)[C@H]3CC[C@@]21C | inactive: -25% | –
O=C(O)C1=CO[C@@H](O[C@@H]2O[C@H](CO)[C@@H](O)[C@H](O)[C@H]2O)[C@@H]2C(CO)=CC[C@H]12 | inactive: 1.95% | –

Biological target: Cytochrome P450 2D6 (Homo sapiens) (UniProt P10635)
Chain of UniProt P10635 (P10635 whole entry, looked up): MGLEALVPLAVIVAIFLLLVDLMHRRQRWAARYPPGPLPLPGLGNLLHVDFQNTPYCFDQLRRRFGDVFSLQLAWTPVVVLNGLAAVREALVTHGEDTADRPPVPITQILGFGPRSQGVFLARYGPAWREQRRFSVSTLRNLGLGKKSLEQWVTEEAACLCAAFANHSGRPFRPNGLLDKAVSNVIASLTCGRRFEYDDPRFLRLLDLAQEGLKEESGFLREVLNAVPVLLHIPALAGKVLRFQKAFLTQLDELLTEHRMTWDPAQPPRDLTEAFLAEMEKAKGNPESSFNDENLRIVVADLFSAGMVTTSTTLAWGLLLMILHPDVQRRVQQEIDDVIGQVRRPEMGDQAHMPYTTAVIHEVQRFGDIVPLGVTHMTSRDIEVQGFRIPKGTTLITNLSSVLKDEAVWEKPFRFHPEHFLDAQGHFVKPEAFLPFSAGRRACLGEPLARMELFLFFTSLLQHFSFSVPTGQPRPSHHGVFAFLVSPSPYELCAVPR
Assay: Cytochrome P450 family 2 subfamily D member 6 (CYP2D6) small molecule antagonists: luciferase biochemical (cell-free) qHTS assay (AID 1645840; active = well fitted curve in the direction sought with a large enough effect in the repeat runs; inconclusive = weak or mixed curves; inactive = no such curve, though single readings can be large; an effect the other way counts as inactive or inconclusive; also: nearly all actives have a fitted effect of over 55% in size; as to activity change, negative = inhibition: % is scaled to controls: 0 for no effect and ±100 for the full control effect)
Conditions: P450-Glo CYP2D6 enzyme, luciferin luminescence, 1 h; series mostly up to 57.4 µM; activity change, negative = inhibition: at the top concentration
How it was run: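 P450-Glo CYP2D6 system: proluciferin substrate converted by enzyme to luciferin, read by luminescence proportional to activity. Enzyme-substrate mix with compound 10 min at room temperature, then NADPH regeneration 1 h before detection reagent.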

SMILES | Potency | activity change, negative = inhibition
CCCn1cc2c(nc(NC(=O)Nc3ccc(OC)cc3)n3nc(-c4ccco4)nc23)n1 | inconclusive [inhibitor, single point] | –
CC(C)S(=O)(=O)c1ccc2nccc(Nc3ccc4scnc4c3)c2c1 | active: 10.7 µM | –
Cc1ccnc(NC(=O)C(C)c2cccc(C(=O)c3ccccc3)c2)c1 (centres undefined) | inconclusive [inhibitor, single point] | –
CC(=O)O[C@]1(C(C)=O)CC[C@H]2[C@@H]3C=C(C)C4=CC(=O)CC[C@]4(C)[C@H]3CC[C@@]21C | – | inactive: 0.138%
Cc1ccc(Cl)c(OCC(O)CNC(C)(C)C)c1 (centres undefined) | active: 1.74 µM | –

Biological target: Cytochrome P450 2C9 (Homo sapiens) (UniProt P11712)
Chain of UniProt P11712 (P11712 whole entry, looked up): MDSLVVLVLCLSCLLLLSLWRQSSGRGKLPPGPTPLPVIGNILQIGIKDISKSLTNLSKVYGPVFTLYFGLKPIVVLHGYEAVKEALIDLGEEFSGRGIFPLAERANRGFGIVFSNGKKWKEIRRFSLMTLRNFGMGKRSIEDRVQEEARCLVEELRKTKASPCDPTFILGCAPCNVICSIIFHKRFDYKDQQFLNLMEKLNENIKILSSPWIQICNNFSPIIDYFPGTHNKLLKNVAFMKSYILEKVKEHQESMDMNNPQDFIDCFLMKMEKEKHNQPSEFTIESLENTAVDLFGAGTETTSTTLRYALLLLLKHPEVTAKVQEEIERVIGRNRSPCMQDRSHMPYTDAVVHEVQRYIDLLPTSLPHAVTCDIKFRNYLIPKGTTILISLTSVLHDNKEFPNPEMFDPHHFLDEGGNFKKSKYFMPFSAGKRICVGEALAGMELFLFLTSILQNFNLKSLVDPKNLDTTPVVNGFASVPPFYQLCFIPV
Assay: Cytochrome P450 family 2 subfamily C member 9 (CYP2C9) small molecule antagonists: luciferase biochemical (cell-free) qHTS assay (AID 1645842; active = well fitted curve in the direction sought with a large enough effect in the repeat runs; inconclusive = weak or mixed curves; inactive = no such curve, though single readings can be large; an effect the other way counts as inactive or inconclusive; also: nearly all actives have a fitted effect of over 55% in size; as to activity change, negative = inhibition: % is scaled to controls: 0 for no effect and ±100 for the full control effect)
Conditions: P450-Glo CYP2C9 enzyme assay, luciferin luminescence; series mostly up to 57.4 µM; activity change, negative = inhibition: at the top concentration
How it was run: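 P450-Glo CYP2C9 system: proluciferin substrate with enzyme in mix containing 0.4% BSA, 10 min at room temperature, then NADPH regeneration solution added and incubated 1 h at 37C. Detection reagent stopped reaction; luminescence read after 20 min as RLU.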

SMILES | Potency | activity change, negative = inhibition
CCCn1cc2c(nc(NC(=O)Nc3ccc(OC)cc3)n3nc(-c4ccco4)nc23)n1 | active: 6.01 µM | –
C=C[C@H]1CN2CC[C@H]1C[C@@H]2[C@@H](O)c1ccnc2ccc(OC)cc12 | – | inactive: -4.04%
CC(=O)NC[C@H]1CN(c2ccc(N3CCSCC3)c(F)c2)C(=O)O1 | inconclusive [inhibitor, partial curve, poor fit] | –
O=[N+]([O-])c1cn2c(n1)OC[C@@H](OCc1ccc(-c3ccc(OC(F)(F)F)cc3)nc1)C2 | inconclusive [inhibitor, partial curve, poor fit] | –

System: not listed separately
Assay: Primary qHTS for inhibitors of nuclear receptor binding SET domain protein 2 (NSD2) in an isogenic RCH-ACV NSD2 p.E1099K mutant (9B) (AID 1645876); also: nearly all actives have a fitted effect of over 70% in size; as to activity change, negative = viability loss: % is scaled to controls: 0 for no effect and ±100 for the full control effect
Conditions: RCH-ACV (leukaemia line) NSD2 E1099K (9B) viability, CellTiter-Glo, 72 h; series mostly up to 44.9 µM; activity change, negative = viability loss: at the top concentration

SMILES | Potency | activity change, negative = viability loss
CC1=CCC2C(C)(C)CCCC2(C)C1CC12OC1C(O)C(CO)=CC2O (centres undefined) | inconclusive [inhibitor, single point] | –
C/C=C(/C=C(C)/C=C/C=C/C=C(\C)C(=O)C12OC1C(O)(CCO)NC2=O)C(=O)OC (centres undefined) | inconclusive [inhibitor, single point] | –
O=C([C@@H](Cc1cccc(C(F)(F)F)c1)NS(=O)(=O)c1cc(F)c2c(c1)CCNC2)N1CCCC1 | inconclusive [inhibitor, partial curve, poor fit] | –
CCCn1cc2c(nc(NC(=O)Nc3ccc(OC)cc3)n3nc(-c4ccco4)nc23)n1 | inconclusive [inhibitor, partial curve, poor fit] | –
Cc1ccnc(NC(=O)C(C)c2cccc(C(=O)c3ccccc3)c2)c1 (centres undefined) | inconclusive [inhibitor, single point] | –
Clc1ncoc1-c1c[nH]c2ccccc12 | inconclusive [inhibitor, single point] | –
CC(C)(C)NC(=O)[C@H]1CC[C@H]2[C@@H]3CC[C@H]4NC(=O)CC[C@]4(C)[C@H]3CC[C@]12C | – | inactive: -19.5%
CO[C@H]1O[C@@H]2O[C@@]3(C)CCC4[C@H](C)CCC([C@H]1C)[C@]42OO3 (some centres undefined) | inconclusive [inhibitor, partial curve] | –
C=C[C@H]1CN2CC[C@H]1C[C@@H]2[C@@H](O)c1ccnc2ccc(OC)cc12 | inconclusive [inhibitor, single point] | –
Nc1nc2c(s1)CCN(Cc1ccc(Cl)cc1)CC2 | inconclusive [inhibitor, single point] | –
CCC(C)/C=C(C)/C=C/C1=CC2=C(Cl)C(=O)C(C)(OC(C)=O)C(=O)C2(O)C(OC)O1 (centres undefined) | inconclusive [inhibitor, single point] | –
CC(C)(C)OC(=O)c1ncn2c1C(C)(C)Nc1ccccc1-2 | inconclusive [inhibitor, single point] | –
CC1(CO)CC(O)[C@]2(C(=O)O)CCC34CC3(C=CC3[C@]5(C)C(CC[C@]34C)C(C)(CO)[C@@H](O)[C@H](O)[C@@H]5O)C2C1 (some centres undefined) | inconclusive [inhibitor, single point] | –
C=C[C@H]1[C@H](O[C@@H]2O[C@H](CO[C@@H]3OC[C@](O)(CO)[C@H]3O)[C@@H](O)[C@H](O)[C@H]2O)OC=C2C(=O)OCC[C@H]21 | – | inactive: -2.14% [at 17.3 µM]
CC(C)Nc1nc(Nc2ccccc2)nc(-c2ccccc2)n1 | inconclusive [inhibitor, partial curve] | –
O=[N+]([O-])c1cn2c(n1)OC[C@@H](OCc1ccc(-c3ccc(OC(F)(F)F)cc3)nc1)C2 | inconclusive [inhibitor, single point] | –
COc1cc(/C=C2\CC[C@H]3COC[C@@H](c4cc(F)c(F)c(F)c4)N3C2=O)ccc1-n1cnc(C)c1 | inconclusive [inhibitor, single point] | –
O=C(O)CCc1nccc2c1[nH]c1ccccc12 | inconclusive [inhibitor, single point] | –
CC(=O)O[C@@H]1[C@H](O[C@@H]2O[C@H](CO)[C@@H](O)[C@H](O)[C@H]2O)[C@@H](O[C@@H]2O[C@@H](C)[C@H](O)[C@@H](O[C@@H]3O[C@H](CO)[C@@H](O)[C@H](O)[C@H]3O)[C@H]2O)[C@H](OC(=O)[C@]23CCC(C)(C)C[C@H]2C2=CCC4[C@@]5(C)C[C@H](O)[C@H](O[C@@H]6O[C@H](C(=O)O)[C@@H](O)[C@H](O)[C@H]6O)[C@@](C)(C(=O)O)C5CC[C@@]4(C)[C@]2(C)CC3)O[C@@H]1C (some centres undefined) | – | inactive: -4.25% [at 9.23 µM]
O=C(O)C1=CO[C@@H](O[C@@H]2O[C@H](CO)[C@@H](O)[C@H](O)[C@H]2O)[C@@H]2C(CO)=CC[C@H]12 | inconclusive [inhibitor, single point] | –
CC(=O)SC[C@@H](Cc1ccccc1)C(=O)NCC(=O)OCc1ccccc1 | inconclusive [inhibitor, single point] | –
